Experimental data published in the supplement of paper PMC9151546.
Single values are uncertain, as repeats are few or missing.

Experiments:
[1] = tested on: CHO-K1; experiment: micronucleus frequency (% of nucleated events); higher = more micronuclei (genotoxic)
[2] = tested on: CHO-K1; experiment: relative survival (nuclei to bead ratio vs DMSO control) (% of vehicle control); higher = more surviving cells
[3] = tested on: CHO-K1; experiment: hypodiploid nuclei frequency (% of nucleated events); higher = more hypodiploid events (aneugenic)
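Throughout, for hypodiploid nuclei frequency (% of nucleated events): hypodiploid nuclei gated on a flow cytometer with 488 nm excitation after SYTOX Green staining, cultures at 37 °C, positive controls vinblastine without S9 and cyclophosphamide with S9.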
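Throughout, for micronucleus frequency (% of nucleated events): cells lysed with nuclei stained by SYTOX Green, then micronucleus-gated events counted against nucleated events by flow cytometry with 488 nm excitation.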
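Throughout, for relative survival (nuclei to bead ratio vs DMSO control): Lysed-cell nuclei stained with SYTOX Green and counted against counting beads by flow cytometry at 488 nm excitation, with vinblastine (no S9) and cyclophosphamide (plus S9) as positive controls.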

O=C(Nc1ccc(Cl)cc1)Nc1ccc(Cl)c(Cl)c1 [Triclocarban]
Conditions | hypodiploid nuclei frequency, [3] [%] | micronucleus frequency, [1] [%] | relative survival, [2]
concentration: 4.5 (µM), S9 metabolic activation: with S9, exposure time: 3-4 hours | 0.22 | 1.02 | 114
concentration: 4.5 (µM), S9 metabolic activation: without S9, exposure time: 24 hours | 0.86 | 1.22 | 92.8
concentration: 5.63 (µM), S9 metabolic activation: with S9, exposure time: 3-4 hours | 0.24 | 1.1 | 106
concentration: 5.63 (µM), S9 metabolic activation: without S9, exposure time: 24 hours | 0.64 | 1.32 | 90.5
concentration: 7.04 (µM), S9 metabolic activation: with S9, exposure time: 3-4 hours | 0.34 | 0.94 | 94
concentration: 7.04 (µM), S9 metabolic activation: without S9, exposure time: 24 hours | 1.12 | 1.66 | 78.4
concentration: 8.8 (µM), S9 metabolic activation: with S9, exposure time: 3-4 hours | 0.16 | 1.04 | 116
concentration: 8.8 (µM), S9 metabolic activation: without S9, exposure time: 24 hours | 0.56 | 1.42 | 69.2
concentration: 11 (µM), S9 metabolic activation: with S9, exposure time: 3-4 hours | 0.28 | 0.96 | 108
concentration: 11 (µM), S9 metabolic activation: without S9, exposure time: 24 hours | 0.7 | 1.82 | 51.2
concentration: 13.7 (µM), S9 metabolic activation: with S9, exposure time: 3-4 hours | 0.4 | 1.08 | 103
concentration: 13.7 (µM), S9 metabolic activation: without S9, exposure time: 24 hours | 0.88 | 1.9 | 62.4
concentration: 17.2 (µM), S9 metabolic activation: with S9, exposure time: 3-4 hours | 0.14 | 1.26 | 109
concentration: 17.2 (µM), S9 metabolic activation: without S9, exposure time: 24 hours | 1.22 | 2.26 | 63
concentration: 21.5 (µM), S9 metabolic activation: with S9, exposure time: 3-4 hours | 0.22 | 1.02 | 88.2
concentration: 21.5 (µM), S9 metabolic activation: without S9, exposure time: 24 hours | 0.98 | 1.76 | 59.5
concentration: 26.8 (µM), S9 metabolic activation: with S9, exposure time: 3-4 hours | 0.2 | 1.18 | 104
concentration: 26.8 (µM), S9 metabolic activation: without S9, exposure time: 24 hours | 1.08 | 1.08 | 44.8
concentration: 33.6 (µM), S9 metabolic activation: with S9, exposure time: 3-4 hours | 0.24 | 2.22 | 76.6
concentration: 33.6 (µM), S9 metabolic activation: without S9, exposure time: 24 hours | – | – | 27.5
concentration: 41.9 (µM), S9 metabolic activation: with S9, exposure time: 3-4 hours | 0.48 | 1.52 | 91.3
concentration: 41.9 (µM), S9 metabolic activation: without S9, exposure time: 24 hours | – | – | 32.5
concentration: 52.4 (µM), S9 metabolic activation: with S9, exposure time: 3-4 hours | 0.3 | 0.98 | 85.4
concentration: 52.4 (µM), S9 metabolic activation: without S9, exposure time: 24 hours | 1.06 | 0.87 | 40
concentration: 65.5 (µM), S9 metabolic activation: with S9, exposure time: 3-4 hours | 0.14 | 1.16 | 88
concentration: 65.5 (µM), S9 metabolic activation: without S9, exposure time: 24 hours | – | – | 31.6
concentration: 81.9 (µM), S9 metabolic activation: with S9, exposure time: 3-4 hours | 0.22 | 1.78 | 89.7
concentration: 81.9 (µM), S9 metabolic activation: without S9, exposure time: 24 hours | 1.06 | 0.72 | 40.4
concentration: 102 (µM), S9 metabolic activation: with S9, exposure time: 3-4 hours | 0.24 | 1.7 | 92.3
concentration: 102 (µM), S9 metabolic activation: without S9, exposure time: 24 hours | – | – | 33.8
concentration: 128 (µM), S9 metabolic activation: with S9, exposure time: 3-4 hours | 0.48 | 1.62 | 92.1
concentration: 128 (µM), S9 metabolic activation: without S9, exposure time: 24 hours | 0.86 | 1.04 | 59.2
concentration: 160 (µM), S9 metabolic activation: with S9, exposure time: 3-4 hours | 0.4 | 1.9 | 80.5
concentration: 160 (µM), S9 metabolic activation: without S9, exposure time: 24 hours | 1.5 | 0.96 | 56.3
concentration: 200 (µM), S9 metabolic activation: with S9, exposure time: 3-4 hours | 0.26 | 1.44 | 88.7
concentration: 200 (µM), S9 metabolic activation: without S9, exposure time: 24 hours | 1.62 | 1.22 | 51.7

Oc1cc(Cl)ccc1Oc1ccc(Cl)cc1Cl [Triclosan]
Conditions | hypodiploid nuclei frequency, [3] [%] | micronucleus frequency, [1] [%] | relative survival, [2]
concentration: 4.5 (µM), S9 metabolic activation: with S9, exposure time: 3-4 hours | 0.38 | 1.15 | 121
concentration: 4.5 (µM), S9 metabolic activation: without S9, exposure time: 24 hours | 6.23 | 2.33 | 100
concentration: 5.63 (µM), S9 metabolic activation: with S9, exposure time: 3-4 hours | 0.38 | 1.16 | 109
concentration: 5.63 (µM), S9 metabolic activation: without S9, exposure time: 24 hours | 3.36 | 1.99 | 96.3
concentration: 7.04 (µM), S9 metabolic activation: with S9, exposure time: 3-4 hours | 0.38 | 1.61 | 108
concentration: 7.04 (µM), S9 metabolic activation: without S9, exposure time: 24 hours | 1.44 | 1.75 | 101
concentration: 8.8 (µM), S9 metabolic activation: with S9, exposure time: 3-4 hours | 0.42 | 1.71 | 113
concentration: 8.8 (µM), S9 metabolic activation: without S9, exposure time: 24 hours | 1.89 | 1.77 | 114
concentration: 11 (µM), S9 metabolic activation: with S9, exposure time: 3-4 hours | 0.24 | 1.45 | 119
concentration: 11 (µM), S9 metabolic activation: without S9, exposure time: 24 hours | 1.48 | 2.52 | 110
concentration: 13.7 (µM), S9 metabolic activation: with S9, exposure time: 3-4 hours | 0.28 | 1.24 | 113
concentration: 13.7 (µM), S9 metabolic activation: without S9, exposure time: 24 hours | 1.49 | 1.86 | 99.8
concentration: 17.2 (µM), S9 metabolic activation: with S9, exposure time: 3-4 hours | 0.26 | 1.61 | 105
concentration: 17.2 (µM), S9 metabolic activation: without S9, exposure time: 24 hours | 1.07 | 2.27 | 96.8
concentration: 21.5 (µM), S9 metabolic activation: with S9, exposure time: 3-4 hours | 0.29 | 1.55 | 95.9
concentration: 21.5 (µM), S9 metabolic activation: without S9, exposure time: 24 hours | 1.18 | 2.54 | 80.1
concentration: 26.8 (µM), S9 metabolic activation: with S9, exposure time: 3-4 hours | 0.34 | 1.69 | 104
concentration: 26.8 (µM), S9 metabolic activation: without S9, exposure time: 24 hours | – | – | 50.1
concentration: 33.6 (µM), S9 metabolic activation: with S9, exposure time: 3-4 hours | 0.21 | 1.77 | 113
concentration: 33.6 (µM), S9 metabolic activation: without S9, exposure time: 24 hours | 7.37 | 2.47 | 58
concentration: 41.9 (µM), S9 metabolic activation: with S9, exposure time: 3-4 hours | 0.26 | 1.77 | 97.6
concentration: 41.9 (µM), S9 metabolic activation: without S9, exposure time: 24 hours | 5.17 | 2.1 | 61.6
concentration: 52.4 (µM), S9 metabolic activation: with S9, exposure time: 3-4 hours | 0.2 | 1.51 | 87.7
concentration: 52.4 (µM), S9 metabolic activation: without S9, exposure time: 24 hours | 2.72 | 1.58 | 57.5
concentration: 65.5 (µM), S9 metabolic activation: with S9, exposure time: 3-4 hours | 0.35 | 2.26 | 84.5
concentration: 65.5 (µM), S9 metabolic activation: without S9, exposure time: 24 hours | 2.55 | 1.08 | 57.1
concentration: 81.9 (µM), S9 metabolic activation: with S9, exposure time: 3-4 hours | – | – | 36
concentration: 81.9 (µM), S9 metabolic activation: without S9, exposure time: 24 hours | 2.83 | 1.15 | 52.9
concentration: 102 (µM), S9 metabolic activation: with S9, exposure time: 3-4 hours | – | – | 1.89
concentration: 102 (µM), S9 metabolic activation: without S9, exposure time: 24 hours | – | – | 41.2
concentration: 128 (µM), S9 metabolic activation: with S9, exposure time: 3-4 hours | – | – | 0.13
concentration: 128 (µM), S9 metabolic activation: without S9, exposure time: 24 hours | – | – | 21.1
concentration: 160 (µM), S9 metabolic activation: with S9, exposure time: 3-4 hours | – | – | 0.02
concentration: 160 (µM), S9 metabolic activation: without S9, exposure time: 24 hours | – | – | 0.9
concentration: 200 (µM), S9 metabolic activation: with S9, exposure time: 3-4 hours | – | – | 0.05
concentration: 200 (µM), S9 metabolic activation: without S9, exposure time: 24 hours | – | – | 0.09
